The full ranking holds about 81,000 sequences; the median of “one-hybrid fitness for binding parS DNA” is about -0.17, and the highest 2% start at about 0.51. This is one part of the list.
B1: Caulobacter ParB omega fusion; a variant is named by its letters at X, in order, B8GW30 (parent)
chain: MESVVVGEPGMSEGRRGLGRGLSALLGEVDAAPAQAPGEQLGGSREAPIEILQRNPDQPRRTFREEDLEDLSNSIREKGVLQPILVRPSPDTAGEYQIVAGERAWRAAQRAGLKTVPIMVRELDDLAVLEIGIIENVQRADLNVLEEALSYKVLMEKFERTQENIAQTIGKSXSHVANXMRLLXLPDEVQSYLVSGELTAXHARAIAAAADPVALAKQIIEGGLSVRETEALARKAPNLSAGKSKGGRPPRVKDTDTQALESDLSSVLGLDVSIDHRGSTGTLTITYATLEQLDDLCNRLTRGI

Variants of: B1
Test: one-hybrid fitness for binding parS DNA (scaled: cognate 1, non-cognate 0); higher = stronger binding
Settings: with parS DNA site
Outline: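 Selection: bacterial one-hybrid in E. coli USO, HIS3 reporter with the site 19 bp from the promoter, 48 hours at 37°C on M9-minus-histidine plus 0.1 mM IPTG and 5 mM 3-AT. Libraries were Caulobacter ParB with four randomised specificity codons, sequenced on Illumina before and after selection. Fitness is the rescaled log change in variant-to-wild-type read ratio, anchored to the cognate and non-cognate sites.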

| Variant | one-hybrid fitness for binding parS DNA |
| --- | --- |
| IING | ≤ 0.2 |
| GHNW | ≤ 0.2 |
| GVSC | ≤ 0.2 |
| ASHT | ≤ 0.2 |
| QCLQ | ≤ 0.2 |
| LLSY | ≤ 0.2 |
| SVMF | ≤ 0.2 |
| PDDS | ≤ 0.2 |
| RYGH | ≤ 0.2 |
| QKAV | ≤ 0.2 |
| TPNH | ≤ 0.2 |
| NRAC | ≤ 0.2 |
| RAQL | ≤ 0.2 |
| GGCT | ≤ 0.2 |
| YILA | ≤ 0.2 |
| LRTQ | ≤ 0.2 |
| PGVV | ≤ 0.2 |
| RGRW | ≤ 0.2 |
| MAVK | ≤ 0.2 |
| TFST | ≤ 0.2 |
| GYWC | ≤ 0.2 |
| AAIN | ≤ 0.2 |
| TSVP | ≤ 0.2 |
| CNIG | ≤ 0.2 |
| PLWL | ≤ 0.2 |
| YPTC | ≤ 0.2 |

| Variant | one-hybrid fitness for binding parS DNA |
| --- | --- |
| QPTS | ≤ 0.2 |
| NDLY | ≤ 0.2 |
| GCHS | ≤ 0.2 |
| RYGP | ≤ 0.2 |
| LRLC | ≤ 0.2 |
| KVVA | ≤ 0.2 |
| RGFM | ≤ 0.2 |
| QIGM | ≤ 0.2 |
| MSRY | ≤ 0.2 |
| QVHA | ≤ 0.2 |
| NTWT | ≤ 0.2 |
| CDPR | ≤ 0.2 |
| GKSC | 0.22 |
| DYSF | ≤ 0.2 |
| ENNT | ≤ 0.2 |
| MSIV | ≤ 0.2 |
| TCLE | ≤ 0.2 |
| HIHS | ≤ 0.2 |
| GTTK | ≤ 0.2 |
| RDQG | ≤ 0.2 |
| ARDC | ≤ 0.2 |
| TYCS | ≤ 0.2 |
| QPTA | ≤ 0.2 |
| GCES | ≤ 0.2 |
| DIQL | ≤ 0.2 |
| RVGF | 0.254 |

| Variant | one-hybrid fitness for binding parS DNA |
| --- | --- |
| SWLQ | ≤ 0.2 |
| KFKV | ≤ 0.2 |
| MWKG | ≤ 0.2 |
| SWRN | ≤ 0.2 |
| STKF | ≤ 0.2 |
| RIDF | 0.257 |
| LNCY | ≤ 0.2 |
| IFYY | 0.223 |
| VKPD | ≤ 0.2 |
| PSCQ | ≤ 0.2 |
| SMVN | ≤ 0.2 |
| RANK | ≤ 0.2 |
| KRTN | ≤ 0.2 |
| SLYW | ≤ 0.2 |
| PNSF | ≤ 0.2 |
| PIRW | ≤ 0.2 |
| FPKG | ≤ 0.2 |
| LEPH | ≤ 0.2 |
| NLWS | ≤ 0.2 |
| DHRV | ≤ 0.2 |
| PSLC | ≤ 0.2 |
| FNLM | ≤ 0.2 |
| TFDV | ≤ 0.2 |
| YFHG | ≤ 0.2 |
| CLGS | ≤ 0.2 |
| PMGI | ≤ 0.2 |

| Variant | one-hybrid fitness for binding parS DNA |
| --- | --- |
| SGPP | ≤ 0.2 |
| DMVT | ≤ 0.2 |
| AALI | ≤ 0.2 |
| FSVR | ≤ 0.2 |
| FWIG | ≤ 0.2 |
| HPTE | ≤ 0.2 |
| KFQS | ≤ 0.2 |
| KTRN | ≤ 0.2 |
| PMRI | ≤ 0.2 |
| RMNA | 0.606 |
| YRCA | ≤ 0.2 |
| WLGR | ≤ 0.2 |
| RTFR | ≤ 0.2 |
| VHNY | ≤ 0.2 |
| HYCR | ≤ 0.2 |
| QMHF | ≤ 0.2 |
| PMHA | ≤ 0.2 |
| EPNM | ≤ 0.2 |
| KHPS | ≤ 0.2 |
| KRAA | ≤ 0.2 |
| SHPN | ≤ 0.2 |
| RMPN | 0.262 |
| VIEL | ≤ 0.2 |
| HHYR | ≤ 0.2 |
| RQDW | ≤ 0.2 |
| VIYS | ≤ 0.2 |

| Variant | one-hybrid fitness for binding parS DNA |
| --- | --- |
| RNGN | 0.242 |
| QCFR | ≤ 0.2 |
| FVYS | ≤ 0.2 |
| EKTS | ≤ 0.2 |
| ITRS | ≤ 0.2 |
| RQRN | 0.451 |
| LKTK | ≤ 0.2 |
| WYRC | ≤ 0.2 |
| AMRA | ≤ 0.2 |
| RAKW | 0.338 |
| WMDF | ≤ 0.2 |
| WSKS | ≤ 0.2 |
| PAVC | ≤ 0.2 |
| AIYG | ≤ 0.2 |
| KMKY | ≤ 0.2 |
| KLQC | ≤ 0.2 |
| HVAS | ≤ 0.2 |
| RRPE | ≤ 0.2 |
| GLWG | ≤ 0.2 |
| RTGY | 0.593 |
| TTQP | ≤ 0.2 |
| PRPC | ≤ 0.2 |
| KSDI | ≤ 0.2 |
| QLPH | ≤ 0.2 |
| CSGS | ≤ 0.2 |
| RRVD | ≤ 0.2 |

| Variant | one-hybrid fitness for binding parS DNA |
| --- | --- |
| NMIR | ≤ 0.2 |
| VDQG | ≤ 0.2 |
| KSYG | ≤ 0.2 |
| TCEN | ≤ 0.2 |
| YFPT | ≤ 0.2 |
| IPPV | ≤ 0.2 |
| EESL | ≤ 0.2 |
| QGRP | ≤ 0.2 |
| APMG | ≤ 0.2 |
| ASMM | ≤ 0.2 |
| PPDT | ≤ 0.2 |
| KPVY | ≤ 0.2 |
| KRRQ | ≤ 0.2 |
| KAMY | 0.36 |
| IGRF | ≤ 0.2 |
| ETCV | ≤ 0.2 |
| NYKY | ≤ 0.2 |
| VPLC | ≤ 0.2 |
| DHTL | ≤ 0.2 |
| GLYY | ≤ 0.2 |
| QCHK | ≤ 0.2 |
| KLSE | ≤ 0.2 |
| GLDC | ≤ 0.2 |

— a collection of fitness landscapes (doi:10.1016/j.celrep.2020.107928)
